Experimental data published in PubChem BioAssay AID588342 (National Center for Advancing Translational Sciences (NCATS), 2011).
“And” between values parts separate entries of the source, which are not always exact repeats. Equal values may be shown once. The whole screen tested about 360,000 compounds, of which about 25,000 (6.9%) were called active. Inconclusive means that the source gave no clear call. Such entries were picked first, then a sample of the others. The call rests on the fitted dose curve; in most records, active means well fitted inhibition curve with a large enough effect; inconclusive means small, poorly fitted or top-dose-only effect; inactive means flat fitted curve, though single readings scatter. Where the call is inconclusive, the potency comes from a doubtful curve fit.

The compounds below were run against Luciferin 4-monooxygenase (Photinus pyralis) (UniProt P08659) (assay: qHTS profiling assay for firefly luciferase inhibitor/activator using purifed enzyme and Km concentrations of substrates (counterscreen for miR-21 project)). Settings: purified FLuc, luminescence inhibition; series mostly up to 57.5 µM.
Sequence of UniProt P08659 (P08659 whole entry, looked up): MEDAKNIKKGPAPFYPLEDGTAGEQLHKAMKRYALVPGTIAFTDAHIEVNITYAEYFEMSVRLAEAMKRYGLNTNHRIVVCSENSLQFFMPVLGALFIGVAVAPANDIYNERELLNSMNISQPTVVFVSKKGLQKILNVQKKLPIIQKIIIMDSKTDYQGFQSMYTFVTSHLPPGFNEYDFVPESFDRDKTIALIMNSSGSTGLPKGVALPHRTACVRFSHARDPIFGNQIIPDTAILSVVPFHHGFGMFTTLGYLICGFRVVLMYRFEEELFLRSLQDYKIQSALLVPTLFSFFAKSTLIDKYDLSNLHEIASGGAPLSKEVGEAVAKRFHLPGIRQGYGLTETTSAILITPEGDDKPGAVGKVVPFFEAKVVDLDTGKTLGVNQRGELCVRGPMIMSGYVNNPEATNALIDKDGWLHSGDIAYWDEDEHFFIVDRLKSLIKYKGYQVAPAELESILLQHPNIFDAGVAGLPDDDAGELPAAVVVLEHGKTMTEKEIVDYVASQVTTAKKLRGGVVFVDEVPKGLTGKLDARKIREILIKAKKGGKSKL
Summary of the method: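 Biochemical qHTS of compounds, final roughly 60 µM downward over six points, against 10 nM purified firefly luciferase using Km concentrations of substrates (10 uM D-luciferin, 10 uM ATP) in Tris acetate pH 7.5 buffer; luminescence output.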
Further: nearly all actives have a fitted effect of over 55% in size.
Potency means the concentration at half of the fitted maximal effect; tags describe the fitted curve by direction and shape.

Row | Compound | Potency
1 | COc1ccc(-n2c(O)c(/C=N/n3cnnc3)c3ccccc3c2=O)cc1 | inactive
2 | c1ccc(-c2csc(-c3ccc(-c4csnn4)cc3)n2)cc1 | inconclusive: 2.39 µM [inhibitor, partial curve, poor fit]
3 | CCOC(=O)C1=C(C)NC(C)=C(C(=O)OCC)C1C(=O)OCC(=O)N1CCCCC1CC (stereo not given) | inactive
4 | N#Cc1c(N2CCCC(O)C2)nc(N)c2c(N)nc3c(c12)CC(=O)N3C12CC3CC(CC(C3)C1)C2 (stereo not given) | active: 5.36 µM
5 | CCc1ccc2[nH]c3nc(SCCN4CCOCC4)nnc3c2c1 | inconclusive: 15.1 µM [inhibitor, partial curve, poor fit]
6 | O=C(CSc1nc(-c2ccccc2)cs1)NCCN1C(=O)CSC1=O | inconclusive: 37.9 µM [inhibitor, partial curve, poor fit]
7 | CCN(CC)c1nc2c(-c3cccc(Br)c3)nnn2c2ccccc12 | inconclusive: 23.9 µM [inhibitor, single point]
8 | CCN1CCN(C(c2ccc(OC)cc2)c2c(O)cc(C)n(Cc3ccco3)c2=O)CC1 (stereo not given) | inconclusive: 26.9 µM [inhibitor, partial curve]
9 | O=C1c2ccccc2-c2nnc(-c3ccc(F)cc3)cc21 | active: 0.426 µM
10 | COc1ccc([N+](=O)[O-])cc1C1NN=C(c2ccccc2O)S1 (stereo not given) | inconclusive: 16.9 µM [inhibitor, partial curve]
11 | COc1cc(C(=O)OCc2cc(=O)n3nc(C4CCCCC4)sc3n2)cc(OC)c1OC | inconclusive: 19 µM [inhibitor, partial curve, poor fit]
12 | O=C(OCc1cnc(Cl)s1)c1ccccc1Cl | inconclusive: 23.9 µM [inhibitor, single point]
13 | Cc1cc(C)cc(NC(=O)c2cc(C)nn2C)c1 | inconclusive: 21.3 µM [inhibitor, single point]
14 | COc1ccc(NC(=O)N2c3ccccc3CC2C)cc1OC (stereo not given) | inconclusive: 16.9 µM [inhibitor, partial curve]
15 | CCn1nnc2cc(C(=O)Nc3ccc(Cl)cc3C)ccc21 | inactive
16 | CCCNS(=O)(=O)c1ccc2nc(NC(=O)c3ccc(F)cc3)sc2c1 | inconclusive: 3.38 µM [inhibitor, partial curve, poor fit]
17 | O=C(c1cc(COc2ccc3ncccc3c2)on1)N1CCCC1 | inconclusive: 23.9 µM [inhibitor, single point]
18 | O=C(N/N=C/c1ccc[nH]1)c1cccc(Br)c1 | inconclusive: 19 µM [inhibitor, partial curve]
19 | O=c1oc2ccc(Cl)cc2cc1-c1nnc(Nc2cccc(C(F)(F)F)c2)s1 | inconclusive: 21.3 µM [inhibitor, partial curve, poor fit]
20 | O=C(O)c1cnc(-c2ccccc2)nc1Oc1ccc(Cl)cc1 | inconclusive: 37.9 µM [inhibitor, partial curve, poor fit]
21 | Cc1nc(-c2ccc(S(=O)(=O)Nc3ccc(C#N)cc3)cc2)co1 | inconclusive: 26.9 µM [inhibitor, partial curve, poor fit]
22 | COC(=O)c1ccc(NC(=O)CSc2nc(C)cc(C)c2C(=O)Nc2ccccc2)cc1 | inactive
23 | COC(=O)c1cc(-c2ccc(Br)cc2)n[nH]1 | inconclusive: 16.9 µM [inhibitor, partial curve, poor fit]
24 | CCOc1ccc(/C=C/C(=O)Nc2sc3c(c2C(=O)OC)C(C(=O)OC)CC3)cc1 (stereo not given) | inconclusive: 8.49 µM [inhibitor, partial curve, poor fit]

Row | Compound | Potency
25 | COc1cc(NS(=O)(=O)c2cnc(N)nc2)cc(OC)c1 | inactive
26 | Cc1nc2ccc(NC(=O)NCCO)cc2s1 | inconclusive: 7.57 µM [inhibitor, full curve]
27 | O=C(CSc1nc2ccccc2s1)NCC1CCCO1 (stereo not given) | inactive
28 | Cc1nn2c(N)c(-c3ccccc3)cnc2c1-c1ccc(Cl)cc1 | active: 5.36 µM
29 | C=CCSc1nnc(-c2c[nH]c3ccccc23)n1CC | inconclusive: 19 µM [inhibitor, partial curve]
30 | CCOC(=O)c1c(C)c(C(=O)Nc2ccc3c(c2)OCO3)c(C)n1C | inactive
31 | CC(C)CN1C(=O)C(=O)N(CC(=O)c2ccc3c(c2)CCCC3)C1=O | inactive
32 | Cc1nn(-c2ccc(Cl)cc2)c(=O)c2ccccc12 | active: 16.9 µM
33 | Cc1ccc2c(c1)c1c(c(=O)n(-c3ccccc3C)c(=O)n1CC(=O)N1CCCC1)n2C | inactive
34 | O=C(NC1CCCCC1)C(=S)NC1CCCCC1 | inconclusive: 3.38 µM [inhibitor, full curve]
35 | Cc1ccc(NC(=O)c2sc(N)nc2C)cc1 | active: 21.3 µM
36 | CCOC(=O)c1cnc2c(-c3ccccc3)cnn2c1C | active: 1.9 µM
37 | COc1cccc(OCc2cc(C(=O)NCc3ccc4c(c3)OCO4)no2)c1 | inconclusive: 23.9 µM [inhibitor, single point]
38 | CN1CCC(Oc2ccc(Sc3ccccc3)cc2)CC1 | active: 12 µM
39 | CCc1ccccc1NC(=O)CSCc1cnn(-c2ccccc2)c1-n1cccc1 | inactive
40 | C[n+]1cccc(C(=O)N/N=C/c2ccc3c(c2)OCO3)c1 | inactive
41 | Cc1ccc(N2CCN(C(=O)c3cccs3)CC2)cc1C | inconclusive: 21.3 µM [inhibitor, partial curve, poor fit]
42 | O=C(Nc1nc(-c2ccccc2)cs1)c1cccc([N+](=O)[O-])c1 | inconclusive: 21.3 µM [inhibitor, single point]
43 | CCCn1c(SCc2nc3ccccc3s2)n[nH]c1=O | active: 5.36 µM
44 | CCc1nn(C(C)C(=O)N2CCN(c3cccc(C(F)(F)F)c3)CC2)c(=O)c2cc3occc3n12 (stereo not given) | inconclusive: 30.1 µM [inhibitor, partial curve, poor fit]
45 | N/C(=N\OC(=O)COc1ccccc1)c1ccc(Cl)cc1 | inconclusive: 26.9 µM [inhibitor, partial curve, poor fit]
46 | Cc1ccc(NC(=O)CNS(=O)(=O)c2cccs2)cc1F | inconclusive: 33.8 µM [inhibitor, single point]
47 | COc1cccc(/C=N/NC(=O)c2cnccn2)c1OC | inconclusive: 37.9 µM [inhibitor, single point]
48 | Cc1cc(NS(=O)(=O)c2ccc(NC(=O)/C=C/c3cccc(Cl)c3)cc2)no1 | inconclusive: 21.3 µM [inhibitor, single point]

Row | Compound | Potency
49 | CCCNC(=O)c1c(C)nn(-c2cccc(C)c2)c1-n1cccc1 | inactive
50 | Cc1cccc(CSCc2ccc(C(=O)O)o2)c1 | inconclusive: 23.9 µM [inhibitor, partial curve, poor fit]
51 | O=C(O)/C=C/C(=O)NNC(=O)c1cc(-c2ccccc2)n[nH]1 | active: 10.7 µM
52 | Cc1ccc(NC(=O)CN(C)Cc2c(O)ccc3ccccc23)cc1 | inconclusive: 37.9 µM [inhibitor, single point]
53 | O=C1NC(=Nc2ccc3ccccc3c2)S/C1=C/c1ccco1 | inconclusive: 21.3 µM [inhibitor, single point]
54 | N/C(=N\c1nc2ccccc2o1)NC(=O)c1ccccc1Br | active: 12 µM
55 | CCn1c(SCC(=O)Nc2ccc3c(c2)OCO3)nnc1C1CC1 | inactive
56 | CC(=O)c1cccc(CN2CCCC(N3CCN(c4ccccc4F)CC3)C2)c1 (stereo not given) | inactive
57 | CN(C)S(=O)(=O)n1cc(/C=C(\NC(=O)c2ccccc2Cl)C(=O)NCCCn2ccnc2)c2ccccc21 | inconclusive: 37.9 µM [inhibitor, partial curve, poor fit] and inconclusive: 26.9 µM [inhibitor, partial curve]
58 | O=C(c1ccccc1Br)N1CCc2c([nH]c3ccccc23)C1 | inactive
59 | N#C/C(=C\c1ccc(O)c(O)c1)C(=O)NCc1ccccc1 | inconclusive: 37.9 µM [inhibitor, single point]
60 | CCC1(c2ccccc2)NC(=O)N(CC(=O)Nc2ccc(N3CCCC3)cc2C)C1=O (stereo not given) | inactive
61 | O=C(O)C1Nc2c(C(=O)N3CCOCC3)cccc2C2C=CCC12 (stereo not given) | inconclusive: 19 µM [inhibitor, partial curve, poor fit]
62 | O=C(COc1ccccc1)n1nc(-c2ccc(Cl)cc2)nc1NCc1ccco1 | inconclusive: 19 µM [inhibitor, partial curve]
63 | Cc1cc(N(C)Cc2ccccc2)nc2cc(O)ccc12 | inconclusive: 19 µM [inhibitor, partial curve]
64 | O=C1ON=C(c2ccccc2)/C1=C/c1ccc(O)cc1 | inconclusive: 13.5 µM [inhibitor, partial curve]
65 | Cc1ccc(S(=O)(=O)N2CCCCC2)cc1NC(=O)c1cc2ccccc2o1 | inconclusive: 33.8 µM [inhibitor, partial curve, poor fit]
66 | O=C(Nc1nnc(-c2ccco2)o1)c1ccc2ccccc2c1 | inconclusive: 33.8 µM [inhibitor, partial curve, poor fit]
67 | CCCn1nc(C(=O)Nc2ccc3nc(C)sc3c2)c2ccccc2c1=O | inconclusive: 19 µM [inhibitor, single point]
68 | Cn1c(Cc2ccccc2)nnc1SCC(=O)Nc1ccc(N2CCOCC2)cc1 | inconclusive: 21.3 µM [inhibitor, single point]
69 | Cc1cccc(-c2onc3ccc(C(=O)/C=C/N(C)C)cc23)c1 | inconclusive: 19 µM [inhibitor, partial curve]
70 | C=CCn1c(SCC(=O)Nc2ccc(C(=O)OCC)cc2)nnc1-c1sc(N)nc1C | inconclusive: 19 µM [inhibitor, partial curve]
